The text below walks through data of the supplement of paper PMC8285479.

This test relates to NCI-H1944. The test is described as follows: normalised cell viability (NPI; 0 = phenylarsine oxide control, 1 = DMSO control) (fraction of DMSO control); NCI-H1944 is a non-small cell lung cancer line; higher = more viable cells (less compound toxicity). The following applies: 6 days.
[1] abbreviates: glucocorticoid arm: hydrocortisone 2.75 uM co-treatment, compound 1 µM.
Setting [2] is: glucocorticoid arm: hydrocortisone 2.75 uM co-treatment, compound 5 µM.
Where [3] appears, read: glucocorticoid arm: hydrocortisone 2.75 uM pre-treated 2 days and continued, compound 1 µM.
[4] abbreviates: glucocorticoid arm: hydrocortisone 2.75 uM pre-treated 2 days and continued, compound 5 µM.
Setting [5] is: glucocorticoid arm: vehicle, compound 1 µM.
Where [6] appears, read: glucocorticoid arm: vehicle, compound 5 µM.

Structures can show the parent of a compound that is named as a salt. ± gives the standard deviation of the averaged measurements. Whole data set: some 1,900 compounds, median “normalised cell viability (NPI; 0 = phenylarsine oxide control, 1 = DMSO control)” near 1, cut for the lowest 2% near 0.039. This is one part of the list.
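Also: CTB read-out in 384-well plates, mean of triplicate wells, normalised per plate against 1 µM phenylarsine oxide and 0.1% DMSO, compounds added 24 h after seeding.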

`CC(C)NCC(O)c1ccc(O)c(O)c1` (single isomer, unassigned; (-)) [(-)-Isoproterenol hydrochloride]: the normalised cell viability under setting [1] is 0.9853 ± 0.0075; the normalised cell viability under setting [2] was 0.97 ± 0.038; the normalised cell viability under setting [3] came out at 0.996 ± 0.0046; the normalised cell viability under setting [4] came out at 0.998 ± 0.097; the normalised cell viability under setting [5] amounted to 0.9933 ± 0.0025; the normalised cell viability under setting [6] was 0.992 ± 0.008.
As for `NCCNS(=O)(=O)c1cccc2c(Cl)cccc12` [A3 hydrochloride], the normalised cell viability under setting [1] was 1.003 ± 0.0058; the normalised cell viability under setting [2] was 0.992 ± 0.017; the normalised cell viability under setting [3] was 0.897 ± 0.18; the normalised cell viability under setting [4] amounted to 1.01 ± 0.018; the normalised cell viability under setting [5] is 0.998 ± 0.002; the normalised cell viability under setting [6] worked out at 0.997 ± 0.0027.
Turning to `Cc1ccccc1C(OCCN(C)C)c1ccccc1` (stereo not given) [Orphenadrine hydrochloride], the normalised cell viability was found to be 1.004 ± 0.01 under setting [1]; 1.027 ± 0.0058 under setting [2]; 1.007 ± 0.0058 under setting [3]; 1.06 ± 0.084 under setting [4]; 0.998 ± 0.0017 under setting [5]; 1.006 ± 0.0075 under setting [6].
As for `Cc1ccccc1C(OCCN(C)C)c1ccccc1` (stereo not given) [Orphenadrine Citrate], the normalised cell viability is, setting by setting: under setting [1], 1.01 ± 0.015; under setting [2], 1.017 ± 0.0058; under setting [3], 1.02 ± 0.021; under setting [4], 1.04 ± 0.015; under setting [5], 1.007 ± 0.0058; under setting [6], 1.001 ± 0.0076.
`O=C1CCc2ccc(OCCCCN3CCN(c4cccc(Cl)c4Cl)CC3)cc2N1` [Aripiprazole]: the normalised cell viability is 1.03 ± 0.01 under setting [1]; 1.01 ± 0.011 under setting [2]; 1.03 ± 0.015 under setting [3]; 1.03 ± 0.015 under setting [4]; 1.003 ± 0.0058 under setting [5]; 0.9943 ± 0.0042 under setting [6].
As for `O=C1CCC(N2C(=O)c3ccccc3C2=O)C(=O)N1` (stereo not given) [Thalidomide], the normalised cell viability is 0.982 ± 0.015 under setting [1]; 0.988 ± 0.01 under setting [2]; 0.983 ± 0.03 under setting [3]; 0.974 ± 0.017 under setting [4]; 0.9907 ± 0.004 under setting [5]; 0.9753 ± 0.005 under setting [6].
With `O=C1CCC(N2C(=O)c3ccccc3C2=O)C(=O)N1` (stereo not given), the normalised cell viability is, setting by setting: under setting [1], 1.02 ± 0.015; under setting [2], 1.03 ± 0.021; under setting [3], 1.03; under setting [4], 1.04 ± 0.017; under setting [5], 1.01 ± 0.012; under setting [6], 1.02.
Take `CCCCCCCCCCCCCCCCCC(=O)NCC(COP(=O)([O-])OCC[N+](C)(C)C)OCC` (racemic) [rac-2-Ethoxy-3-octadecanamido-1-propylphosphocholine]: the normalised cell viability by setting is: under setting [1], 1.017 ± 0.0058; under setting [2], 1.04 ± 0.011; under setting [3], 1.01 ± 0.011; under setting [4], 1.04 ± 0.021; under setting [5], 0.9997 ± 0.0091; under setting [6], 1.002 ± 0.0067.
Take `CC(=O)OCC1=C(C(=O)O)N2C(=O)[C@@H](NC(=O)Cc3cccs3)[C@H]2SC1` [Cephalothin sodium salt]: the normalised cell viability is, setting by setting: under setting [1], 1.01 ± 0.015; under setting [2], 1.023 ± 0.0058; under setting [3], 1.003 ± 0.0058; under setting [4], 1.02 ± 0.035; under setting [5], 1.017 ± 0.0058; under setting [6], 1.013 ± 0.0058.
On to `CN(CCOc1ccc(C[C@H](Nc2ccccc2C(=O)c2ccccc2)C(=O)O)cc1)c1ccccn1`, for which the normalised cell viability reads like this: under setting [1], 1.01 ± 0.014; under setting [2], 1.006 ± 0.0069; under setting [3], 1.01 ± 0.016; under setting [4], 1.01 ± 0.01; under setting [5], 1.003 ± 0.0058; under setting [6], 1.01.
Take `CC(NC(=O)Cc1cc(F)cc(F)c1)C(=O)NC1C(=O)N(C)c2ccccc2-c2ccccc21` (stereo not given): the normalised cell viability amounted to 0.977 ± 0.0072 under setting [1]; 0.998 ± 0.0035 under setting [2]; 0.983 ± 0.015 under setting [3]; 0.999 ± 0.019 under setting [4]; 0.9847 ± 0.0057 under setting [5]; 0.9813 ± 0.007 under setting [6].
As to `CC(N)C(=O)OC(C)(C)Cc1ccc(Cl)cc1` (stereo not given) [Alaproclate hydrochloride], the normalised cell viability was found to be 0.99 ± 0.031 under setting [1]; 0.981 ± 0.016 under setting [2]; 0.871 ± 0.23 under setting [3]; 1.004 ± 0.0092 under setting [4]; 1.01 under setting [5]; 1.003 ± 0.0061 under setting [6].
For `CCOc1cc(N)c(Cl)cc1C(=O)NCC1CN(Cc2ccc(F)cc2)CCO1` (stereo not given) [Mosapride Citrate], the normalised cell viability under setting [1] stood at 1.01 ± 0.014; the normalised cell viability under setting [2] was determined as 1.04 ± 0.021; the normalised cell viability under setting [3] was 0.992 ± 0.026; the normalised cell viability under setting [4] came out at 1.02 ± 0.024; the normalised cell viability under setting [5] stood at 1.007 ± 0.0058; the normalised cell viability under setting [6] is 1.01.
On to `CNCCCN1c2ccccc2CCc2ccccc21` [Desipramine hydrochloride], for which the normalised cell viability runs as follows: under setting [1], 0.996 ± 0.0035; under setting [2], 0.944 ± 0.018; under setting [3], 0.996 ± 0.014; under setting [4], 0.9767 ± 0.0075; under setting [5], 0.9963 ± 0.004; under setting [6], 0.9937 ± 0.0021.
Consider `C[C@@]1(c2cc(-c3cncnc3)c(F)cc2F)CCSC(N)=N1`, for which the normalised cell viability runs as follows: under setting [1], 0.99 ± 0.012; under setting [2], 1.017 ± 0.0058; under setting [3], 1; under setting [4], 1.01 ± 0.019; under setting [5], 0.995 ± 0.0046; under setting [6], 1.003 ± 0.0058.
As to `COc1ccc(CCNC[C@@H](O)c2ccc(O)cc2)cc1OC` [R(-)-Denopamine], the normalised cell viability came to 1.01 ± 0.01 under setting [1]; 1.017 ± 0.0058 under setting [2]; 1.02 ± 0.017 under setting [3]; 1.013 ± 0.0058 under setting [4]; 1.01 under setting [5]; 1.01 ± 0.014 under setting [6].
For the molecule `CCc1cnn2c(NCc3ccc[n+]([O-])c3)cc(N3CCCC[C@H]3CCO)nc12`, the normalised cell viability under setting [1] came to 0.0547 ± 0.0038; the normalised cell viability under setting [2] is 0.0409 ± 0.0039; the normalised cell viability under setting [3] stood at 0.144 ± 0.004; the normalised cell viability under setting [4] worked out at 0.153 ± 0.0068; the normalised cell viability under setting [5] came to 0.0139 ± 0.0022; the normalised cell viability under setting [6] is 0.00878 ± 0.0013.
As for `O=C1NC(=O)[C@@H](c2cn3c4c(cccc24)CCC3)[C@@H]1c1c[nH]c2ccccc12` [ARQ 197 (Tivantinib)], the normalised cell viability worked out at 0.447 ± 0.025 under setting [1]; 0.36 ± 0.0085 under setting [2]; 0.745 ± 0.029 under setting [3]; 0.751 ± 0.007 under setting [4]; 0.0789 ± 0.0095 under setting [5]; 0.0435 ± 0.0048 under setting [6].
With `CCCCCCCCCCCCCCSCC(=O)O` [Tetradecylthioacetic acid], the normalised cell viability runs as follows: under setting [1], 0.994 ± 0.025; under setting [2], 1.01 ± 0.015; under setting [3], 0.816 ± 0.31; under setting [4], 1.01 ± 0.01; under setting [5], 0.995 ± 0.0044; under setting [6], 0.9917 ± 0.0064.
Consider `CCCn1cnc2c1c(=O)n(CCCCC(C)=O)c(=O)n2C` [Propentofylline], for which the normalised cell viability by setting is: under setting [1], 0.9977 ± 0.0025; under setting [2], 1 ± 0.014; under setting [3], 0.881 ± 0.21; under setting [4], 1.01 ± 0.013; under setting [5], 0.9887 ± 0.0025; under setting [6], 0.9737 ± 0.0072.
On to `CC(C)(CO)Cc1cc(C(C)(C)C)c(O)c(C(C)(C)C)c1`, for which the normalised cell viability was determined as 1.017 ± 0.0058 under setting [1]; 1.02 ± 0.017 under setting [2]; 1.01 ± 0.01 under setting [3]; 0.995 ± 0.0071 under setting [4]; 0.997 ± 0.003 under setting [5]; 1.002 ± 0.0072 under setting [6].
Turning to `O=C(O)CN(CCN(CC(=O)O)CC(=O)O)CCN(CC(=O)O)CC(=O)O` [Diethylenetriaminepentaacetic acid], the normalised cell viability is 1.004 ± 0.01 under setting [1]; 0.994 ± 0.028 under setting [2]; 0.999 ± 0.011 under setting [3]; 0.991 ± 0.027 under setting [4]; 0.9943 ± 0.0031 under setting [5]; 0.995 ± 0.007 under setting [6].
For `C#CCN(C)CCCOc1ccc(Cl)cc1Cl` [Clorgyline hydrochloride], the normalised cell viability reads like this: under setting [1], 0.988 ± 0.0056; under setting [2], 0.987 ± 0.011; under setting [3], 0.994 ± 0.017; under setting [4], 1.03 ± 0.06; under setting [5], 0.9787 ± 0.0011; under setting [6], 0.9837 ± 0.006.
`CC(C(=O)Nc1cccc(/N=C/c2c(O)ccc3ccccc23)c1)c1ccccc1` (stereo not given) [Salermide]: the normalised cell viability is, setting by setting: under setting [1], 0.999 ± 0.014; under setting [2], 1.01 ± 0.02; under setting [3], 0.9942 ± 0.0055; under setting [4], 1 ± 0.035; under setting [5], 0.9967 ± 0.0083; under setting [6], 1.002 ± 0.01.
As for `CC(C)NCC(O)c1cc(O)cc(O)c1` (stereo not given) [Metaproterenol hemisulfate], the normalised cell viability is, setting by setting: under setting [1], 1.002 ± 0.0072; under setting [2], 1.01 ± 0.028; under setting [3], 1.01 ± 0.019; under setting [4], 1.04 ± 0.095; under setting [5], 0.983 ± 0.0046; under setting [6], 0.989 ± 0.0053.
